Assay results from article PMC4336329 (PLoS ONE, 2015).
The whole screen tested about 310,000 compounds, of which about 2,200 (0.71%) showed an effect of 50% or more. The effect is printed as a negative number. This is one part of the list.

Molecular target: human ether-à-go-go-related gene (hERG) potassium channel (human, UniProt Q12809)
Assay: primary screen, population patch clamp on CHO cells stably expressing hERG

Chain of human ether-à-go-go-related gene (hERG) potassium channel (Q12809 whole entry, looked up): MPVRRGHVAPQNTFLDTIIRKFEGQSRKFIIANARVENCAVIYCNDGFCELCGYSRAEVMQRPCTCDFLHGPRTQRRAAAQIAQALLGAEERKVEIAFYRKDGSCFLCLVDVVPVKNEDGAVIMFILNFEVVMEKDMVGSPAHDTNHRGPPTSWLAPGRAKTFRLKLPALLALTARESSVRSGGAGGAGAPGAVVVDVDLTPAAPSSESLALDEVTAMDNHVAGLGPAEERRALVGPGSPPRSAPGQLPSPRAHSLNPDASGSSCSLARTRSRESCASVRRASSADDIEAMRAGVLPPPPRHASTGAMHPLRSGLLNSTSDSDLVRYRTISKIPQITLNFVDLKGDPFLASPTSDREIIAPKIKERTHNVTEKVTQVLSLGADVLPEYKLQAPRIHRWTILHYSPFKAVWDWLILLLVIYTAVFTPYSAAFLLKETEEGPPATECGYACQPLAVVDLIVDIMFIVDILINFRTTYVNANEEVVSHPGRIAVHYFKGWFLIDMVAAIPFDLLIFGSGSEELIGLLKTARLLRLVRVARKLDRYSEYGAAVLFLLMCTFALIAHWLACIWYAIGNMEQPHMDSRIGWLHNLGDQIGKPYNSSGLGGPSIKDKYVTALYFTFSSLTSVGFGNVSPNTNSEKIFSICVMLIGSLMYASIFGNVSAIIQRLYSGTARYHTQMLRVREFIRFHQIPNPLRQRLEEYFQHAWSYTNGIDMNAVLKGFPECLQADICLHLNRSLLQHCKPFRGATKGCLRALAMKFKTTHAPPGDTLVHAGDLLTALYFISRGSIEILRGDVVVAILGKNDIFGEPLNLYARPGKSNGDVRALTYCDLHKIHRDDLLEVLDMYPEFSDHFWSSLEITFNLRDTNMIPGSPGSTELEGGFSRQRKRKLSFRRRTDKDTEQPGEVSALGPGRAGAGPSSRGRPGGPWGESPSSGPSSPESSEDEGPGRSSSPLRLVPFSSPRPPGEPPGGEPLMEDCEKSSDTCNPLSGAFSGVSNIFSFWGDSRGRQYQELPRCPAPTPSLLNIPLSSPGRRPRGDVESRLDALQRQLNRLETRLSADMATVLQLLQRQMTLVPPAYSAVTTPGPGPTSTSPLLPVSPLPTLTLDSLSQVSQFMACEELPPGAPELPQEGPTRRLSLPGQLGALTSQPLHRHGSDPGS

Compound | hERG current change (%, negative = inhibition) at 1uM [%]
CCOC(=O)c1sc(N(Cc2ccccc2)C(=O)COC(=O)c2ccc(O)cc2)nc1C | 18.6
CC(C)NC(=O)COC(=O)/C=C/c1ccco1 | 13.2
CCO[C@H]1OC(C(=O)NCc2nc3ccccc3[nH]2)=C[C@@H](c2cn(C(C)=O)c3ccccc23)[C@@H]1CCCO | -23.9
CC(=O)Nc1ccc(NC(=O)Cn2cnc3c(cnn3C(C)(C)C)c2=O)cc1 | 13.8
COc1cc(/C=C(\C#N)C(N)=O)ccc1OS(=O)(=O)c1ccc(C)cc1 | 12.8
COCCOc1nc2c(c(=O)n(C)c(=O)n2C)n1Cc1cccc(OC)c1 | 11.7
O=C(c1ccccc1)c1ccccc1N=Cc1c(O)[nH]c(=O)[nH]c1=O | 9.44
C/C(CC(=O)N1CCN(C=O)CC1)=N\NC(=O)c1ccc(Br)cc1 | 8.82
O=C(CC(=O)N/N=C/c1ccc(C(=O)O)cc1)NCCc1ccccc1 | 19.1
COc1cc(/C=N/NP(=S)(c2ccccc2)c2ccccc2)ccc1O | 3.62
O=C(c1ccco1)N1N=C(c2ccc(Cl)cc2)CC1c1ccco1 (stereo not drawn) | 12.5
COc1ccccc1-c1c(C)nn2c(NCCN3CCCC3)cc(C)nc12 | 12.3
Cc1nn(-c2ccc(F)cc2)c(-n2cccc2)c1C(=O)N1CCN(C(=O)c2ccco2)CC1 | 14.2
Nc1ncc2[nH]cnc2n1 | 15
COc1cc(/C=C/C(=O)O)cc(S(=O)(=O)NCc2ccc3c(c2)OCO3)c1OC | 13.1
O=C(Nc1ccncc1)c1ccc(S(=O)(=O)Nc2ccccc2)cc1 | 11.9
O=C(COc1ccc(F)cc1F)N1CCCCCCC1 | 15.8
Cc1c(C(=O)NCCN2CCCC(O)C2)oc2c(F)cccc12 (stereo not drawn) | 10.6
CC(C)[C@H](NC(=O)N1CC(=O)Nc2ccccc21)C(=O)N[C@H](C(=O)O)c1ccccc1 | 7.98
Cc1cccc(C(=O)NCCC(=O)NCc2ccccc2Cl)c1 | -5.83
CCN(Cc1nc(-c2ccc(OC)cc2)no1)C(=O)c1ccc2c(c1)OCO2 | 9.34
Cc1ccc(-n2nc3ccc(N)cc3n2)cc1C | 6.98

Compound | hERG current change (%, negative = inhibition) at 1uM [%]
Cc1ccc(N2CC(C(=O)Oc3cccc(N4C(=O)CCC4=O)c3)CC2=O)cc1 (stereo not drawn) | -8.29
COc1ccc(CNC(=S)Nc2ccccc2-c2ccccc2)cc1 | 5.81
O=C(CN1CCN(C(=O)C2CC2)CC1)Nc1cc(C(F)(F)F)cc(C(F)(F)F)c1 | -5.9
CC(=O)O[C@@]12CO[C@@H]1C[C@H](OC1OCC(O)C(O)C1O)[C@@]1(C)C(=O)[C@H](O)C3=C(C)[C@@H](OC(=O)[C@H](O)[C@@H](NC(=O)c4ccccc4)c4ccccc4)C[C@@](O)([C@@H](OC(=O)c4ccccc4)C12)C3(C)C (stereo partly drawn) | 5.93
Cc1cccc(CSc2nnc(CCNC(=O)OC(C)(C)C)o2)c1 | 6.05
Cc1onc(-c2ccccc2)c1C(=O)N1CCN(S(=O)(=O)c2ccc(OC(F)(F)F)cc2)CC1 | 11.3
CCC(C(=O)NCCC1=CCCCC1)c1ccccc1 (stereo not drawn) | 4.51
O=C(NCc1cccs1)c1ccc(S(=O)(=O)N2CCCCC2)cc1 | 8.76
N[C@@H](Cc1ccc(N(CCCl)CCCl)cc1)C(=O)O | 8.67
C=CCOc1nc(N(C)C)nc(N(C)C)n1 | 10.3
COc1ccc(/C=N/NC(=O)CN(CCc2ccccc2)S(=O)(=O)c2ccc(NC(C)=O)cc2)cc1OC | -3.42
CCC1CCCN1Cn1cnc2c([nH]c3ccc(Cl)cc32)c1=O (stereo not drawn) | -70.9
O=C(Nc1cc(Cl)ccc1-n1cncn1)c1cncc(Br)c1 | 19.7
COc1ccc(C(C)=O)cc1COC(=O)c1cccc(N(C)C)c1 | 6.78
CN1CCC(N(C)C(=O)c2ccccc2Nc2ccc(SC(F)F)cc2)CC1 | -21.2
CCOC(=O)c1c(NC(=O)CSc2nccn2C)sc(C(=O)NC)c1C | 8.98
CCCC1=C(C(=O)OCC)C(c2ccc(F)cc2)n2ncnc2N1 (stereo not drawn) | -14.8
O=C(Cn1nc(Cl)nc1Cl)c1ccc(F)cc1 | 8.98
CC1(C)COC(/C=C/c2ccc([N+](=O)[O-])cc2)=N1 | 0.435
COC(=O)[C@H](Cc1ccccc1)NC(=O)NC(C)CCc1ccccc1 (stereo partly drawn) | 2.53
CC(C)(C)NC(=S)NNC(=O)c1cccc(Br)c1 | 11.6
O=C(OCC(=O)c1c[nH]c2ccccc12)c1cc2ccccc2cc1O | 5.94

Compound | hERG current change (%, negative = inhibition) at 1uM [%]
CSc1ccccc1C(=O)Nc1cccc(C)c1 | 9.27
CC[N+](C)(CC)CCC(c1ccccc1)C1CCCCC1 (stereo not drawn) | 11.1
O=C(Nc1ccccc1N(C(=O)c1ccco1)S(=O)(=O)c1cccs1)c1ccco1 | 10
CC(C)C(c1nnnn1Cc1ccc(F)cc1)N1CCN(C2CCCCC2)CC1 (stereo not drawn) | -40.8
CCOc1cc(C=O)cc(Br)c1OCC(=O)NCCc1ccccc1 | 0.247
Cc1cc(C(=O)NC2CCCC(C)C2C)c2ccccc2n1 (stereo not drawn) | 11.8
NC(=O)c1ccccc1NC(=O)c1ccccc1Cl | 2.08
CCN(CC)CCCCCCCCOC(=O)c1cc(OC)c(OC)c(OC)c1.Cl | 0.589
O=C(c1ccc(=O)[nH]c1)N1CCCc2ccccc21 | 7.56
Cc1c(C(=O)OCC(=O)NCc2ccco2)cccc1[N+](=O)[O-] | -2.37
Cc1nc(C)n(CC(O)COc2ccc3c(c2)CCC3)n1 (stereo not drawn) | 3.77
Cc1cccc(NS(=O)(=O)Cc2ccccc2)n1 | 1.28
COc1ccc(-n2nnnc2SCC(=O)N2CCOCC2)cc1 | 0.0244
Nc1c(Cl)ncnc1N1CCN(c2ncnc(Cl)c2N)CC1 | 8.26
CCC1CCCCN1C(=O)c1ccc([N+](=O)[O-])o1 (stereo not drawn) | 12.1
COc1ccc(C2CC(c3ccccc3O)=NN2c2ccccc2)cc1 (stereo not drawn) | 11.3
CSCC[C@H](NC(=O)NCc1ccc(F)cc1)C(=O)O | 0.257
Cc1ccc(NC(=O)c2ccc(OC(=O)COc3cccc(Cl)c3)cc2)cc1 | 12.9
Cc1ccc(C)n1-c1ncc(Br)cn1 | 14.1
Brc1ccccc1OCCOCCOc1cccc2cccnc12 | 8.11
Cc1[nH]nc2c1C(C(C)c1ccccc1)C(C#N)=C(N)O2 (stereo not drawn) | 7.79
CC(C)(C)n1ncc2c(=O)n(CC(=O)NCCc3ccccc3)cnc21 | 6.79

Compound | hERG current change (%, negative = inhibition) at 1uM [%]
CCn1c(O)c(C=Nc2ccc(S(N)(=O)=O)cc2)c(=O)[nH]c1=S | 10
Cc1ccc(C)c(Cn2ncc3ccccc32)c1 | 10.1
COC(=O)c1ccc(OC(=O)CCN2C(=O)C3C4c5ccccc5C(c5ccccc54)C3C2=O)cc1 (stereo not drawn) | 4.48
OCC[C@@H]1C[C@H](O)[C@@H](O)[C@]2(Cc3ccccc3CO2)O1 | 1.79
COC(=O)c1nnc(-c2ccccc2)nc1OC | 7.08
CCOC(=O)C1=C(C)Nc2ncnn2C1c1cccnc1 (stereo not drawn) | 19.5
COc1ccc(OC)c(NC(=O)CN2C(=O)C(C)N(c3ccc(C)cc3)C2=O)c1 (stereo not drawn) | 3.58
O=C(/C=C/c1ccccc1Cl)NCCCn1ccnc1 | -3.72
CCCOc1ccc(NC(=O)CC2C(=O)N(CC)C(=S)N2CCCN2CCN(Cc3ccccc3)CC2)cc1 (stereo not drawn) | 2.4
O=C1CC(c2ccc(F)cc2)SC(N(c2ccccc2)c2ccccc2)=N1 (stereo not drawn) | 10.1
CN(CC(=O)Nc1ccc(F)cc1)C(=O)COC(=O)c1cc(S(=O)(=O)N(C)C)ccc1N1CCCC1 | 11.8
Cc1cccc2[nH]c3c(=O)n(CCN4CCNCC4)cnc3c12 | 6.01
N#CC(c1ccc(F)cc1)c1ccc(C(=O)c2ccc(F)cc2)cc1 (stereo not drawn) | 12.1
Cc1ccc(C(=O)N2CCCC(CCC(=O)NCc3ccccc3F)C2)cn1 (stereo not drawn) | 7.57
O=C(C(=O)N1CCN(c2ccccc2)CC1)c1c[nH]c2ccccc12 | 7.38
COc1cc(NC(=O)Cc2ccccc2)ccc1NC(=O)c1ccco1 | 12.4
COc1ccc(-c2noc(Cn3cc(S(=O)(=O)N4CCCC4)ccc3=O)n2)cc1 | 0.255
COc1ccc(OC)c(CCNC(=O)CCCc2nnc3n(C)c(=O)c4sccc4n23)c1 | 8.24
CCc1nnc(NC(=O)CSc2nc3cc(OC)c(OC)cc3cc2C)s1 | 6.22
COc1cc2c(cc1OC)C(c1cc([N+](=O)[O-])ccc1O)NCC2 (stereo not drawn) | 17.8
COCCNC(=S)N(CCc1c(C)[nH]c2ccc(C)cc12)Cc1cc(OC)c(OC)c(OC)c1 | 5.11
